Test results: PMC9911399, “Two distinct binding modes provide the RNA-binding protein RbFox with extraordinary sequence specificity”
Where a chain is given by its changes, count along the chain named. Some of the results follow.

T1: RBFOX1 RRM RbFoxmut (Fox-RRM*) (Homo sapiens, UniProt Q9NWB1 109-208, R118D;E147R;N151S;E152T)
T1 sequence: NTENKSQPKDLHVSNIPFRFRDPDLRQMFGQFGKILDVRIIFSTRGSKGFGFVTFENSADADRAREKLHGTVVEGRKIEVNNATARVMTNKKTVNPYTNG

B1: AGCUGUU (DNA:RNA)
RNA: GGGAGACCGGAAUUCAGAUUGUCCAGCUGUUUUAAAUCCCGUCGUAGCCACCA
DNA 1: CAATCTGAATTCCGGTCTCCC
DNA 2: TGGTGGCTACGACGGGATT
B2: UAUAGUA (DNA:RNA)
RNA: B1 RNA with A25U, G26A, C27U, U28A, U31A
DNA 1: CAATCTGAATTCCGGTCTCCC
DNA 2: TGGTGGCTACGACGGGATT
B3: UCGAAUA (DNA:RNA)
RNA: B1 RNA with A25U, G26C, C27G, U28A, G29A, U31A
DNA 1: CAATCTGAATTCCGGTCTCCC
DNA 2: TGGTGGCTACGACGGGATT
B4: AUAUUUC (DNA:RNA)
RNA: B1 RNA with G26U, C27A, G29U, U31C
DNA 1: CAATCTGAATTCCGGTCTCCC
DNA 2: TGGTGGCTACGACGGGATT
B5: CCGCCCA (DNA:RNA)
RNA: GGGAGACCGGAAUUCAGAUUGUCCCCGCCCAUUAAAUCCCGUCGUAGCCACCA
DNA 1: CAATCTGAATTCCGGTCTCCC
DNA 2: TGGTGGCTACGACGGGATT
B6: UAGUGCA (DNA:RNA)
RNA: B5 RNA with C25U, C26A, C28U, C29G
DNA 1: CAATCTGAATTCCGGTCTCCC
DNA 2: TGGTGGCTACGACGGGATT
B7: GGGGUUG (DNA:RNA)
RNA: B1 RNA with A25G, C27G, U28G, G29U, U31G
DNA 1: CAATCTGAATTCCGGTCTCCC
DNA 2: TGGTGGCTACGACGGGATT
B8: AACAUCU (DNA:RNA)
RNA: B1 RNA with G26A, U28A, G29U, U30C
DNA 1: CAATCTGAATTCCGGTCTCCC
DNA 2: TGGTGGCTACGACGGGATT
B9: CCAUCUG (DNA:RNA)
RNA: B5 RNA with G27A, C28U, C30U, A31G
DNA 1: CAATCTGAATTCCGGTCTCCC
DNA 2: TGGTGGCTACGACGGGATT

biological target: T1, RBFOX1 RRM RbFoxmut (Fox-RRM*); test: EMSA; HiTS-Eq, 1 nM pool, 10 min; buffer printed only for the single-RNA assays: 10 mM Tris pH 7.5, 150 mM NaCl, 3.4 mM EDTA, 0.001% NP-40, 30 C; settings: tags: His6 N-terminal (pET28a); label: 5' 32P
Procedure, shortened: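 Relative association constants, normalised to the cognate motif, were derived by comparing read counts of each RNA species with those of the control reaction. The RNA sequenced was the free fraction, separated by 8% native PAGE after a 10 min equilibration in 50 µL of 1 nM 5′-radiolabelled RNA (7 randomized nucleotides) with increasing concentrations of purified wild-type or mutant RbFox RRM.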

Binder | binding signal
B1 | 0.0994 KA relative to UGCAUGU
B2 | 0.118 KA relative to UGCAUGU
B3 | 0.13 KA relative to UGCAUGU
B4 | 0.0915 KA relative to UGCAUGU
B5 | 0.0565 KA relative to UGCAUGU
B6 | 0.187 KA relative to UGCAUGU
B7 | 0.609 KA relative to UGCAUGU
B8 | 0.0476 KA relative to UGCAUGU
B9 | 0.0778 KA relative to UGCAUGU
